# In PubChem BioAssay (Tox21):
# Values joined by “and” are separate entries in the source; they are usually repeats but may differ in a detail not shown here. Equal values may be shown once. This list was built around the results that the source calls inconclusive (neither active nor inactive); the mix of calls is not that of the screen. For some assays here: Potencies of inconclusive entries are doubtful fits and often do not repeat. Some compounds were tested as several samples or in several runs, with calls that do not always agree. Active and inactive are the calls of the source. Unless noted, calls come from the whole dose curve; as a rule, active = well fitted curve in the direction sought with a large enough effect in the repeat runs; inconclusive = weak or mixed curves; inactive = no such curve, though single readings can be large; an effect the other way counts as inactive or inconclusive.
# Legend:
# [1] = qHTS assay to identify small molecule agonists of H2AX - cell viability counter screen (AID 1224847; calls by dose curve; note: nearly all actives have a fitted effect of over 30% in size; note: potency is the fitted concentration of half-maximal effect)
# In short: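 For this counter screen, overnight-attached CHO-K1 cells received test compounds (15 concentrations, 0.76% DMSO final); 3 hr later at 37C, CellTiter-Glo reagent was added and luminescence recorded after 30 min at room temperature.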
# [2] = qHTS RealTime-Glo MT Cell Viability Assay in HEK293 cells - 32 hour (AID 1224868); note: potency is the fitted concentration of half-maximal effect; nearly all actives have a fitted effect of over 50% in size
# In short: (§1)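 Reads taken at 0, 8, 16, 24, 32 and 40 h from the same wells. HEK293 cells (600/well) carried RealTime-Glo reagents from seeding, with compound added after a 5 h settle at 37 C.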
# [3] = A CellTox Green Cytotoxicity Assay to monitor cytotoxicity in HEK293 cells - 0 hour (AID 1224869); note: potency is the fitted concentration of half-maximal effect; nearly all actives have a fitted effect of over 50% in size
# In short: (§2)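 Seeding of HEK293 cells together with cytotoxicity dye preceded a 5 h incubation at 37 C/5% CO2. Test compounds in DMSO were then added and fluorescence monitored across 40 h.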
# [4] = qHTS RealTime-Glo MT Cell Viability Assay in HEK293 cells - 16 hour (AID 1224872); note: nearly all actives have a fitted effect of over 50% in size; note: potency is the fitted concentration of half-maximal effect
# In short: as §1
# [5] = qHTS RealTime-Glo MT Cell Viability Assay in HEK293 cells - 40 hour (AID 1224874); conditions: RealTime-Glo luminescence; max response: stronger effect = lower value; note: potency is the fitted concentration of half-maximal effect; nearly all actives have a fitted effect of over 50% in size
# In short: (§3)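 Tox21 screen in HEK293 using RealTime-Glo MT chemistry, with cells and reagent co-dispensed. Luminescence proportional to viable cell number was captured at intervals during 40 h compound exposure at 37 C.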
# [6] = A CellTox Green Cytotoxicity Assay to monitor cytotoxicity in HEK293 cells - 24 hour (AID 1224875); note: potency is the fitted concentration of half-maximal effect; nearly all actives have a fitted effect of over 45% in size
# In short: as §2
# [7] = A CellTox Green Cytotoxicity Assay to monitor cytotoxicity in HepG2 cells - 16 hour (AID 1224876); note: potency is the fitted concentration of half-maximal effect; nearly all actives have a fitted effect of over 45% in size
# In short: (§4)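 Nonlytic assay: viable cells exclude the dye, so fluorescence scales with cell death. HepG2 at 600 cells/well, compounds added after 5 h, signal read across 40 h.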
# [8] = A CellTox Green Cytotoxicity Assay to monitor cytotoxicity in HepG2 cells - 24 hour (AID 1224878); note: potency is the fitted concentration of half-maximal effect; nearly all actives have a fitted effect of over 45% in size
# In short: as §4
# [9] = A CellTox Green Cytotoxicity Assay to monitor cytotoxicity in HepG2 cells - 40 hour (AID 1224879); note: potency is the fitted concentration of half-maximal effect; nearly all actives have a fitted effect of over 40% in size
# In short: as §4
# [10] = qHTS assay to identify small molecule agonists of the estrogen related receptor (ERR) signaling pathway from Tox21 library (AID 1224849; calls by dose curve; note: % is set by controls: 0 for no effect and ±100 for the full control effect; nearly all actives have a fitted effect of over 15% in size); conditions: ERR reporter cell line, ONE-Glo luciferase, 18 h
# In short: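 Six hours post-seeding at 37 C/5% CO2, ERR cells receive DMSO-solubilised compounds; after 18 h at 37 C, ONE-Glo reagent is applied and luminescence recorded.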
# [11] = qHTS RealTime-Glo MT Cell Viability Assay in HepG2 cells - 24 hour (AID 1224867)
# In short: (§5)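 HepG2 suspension premixed with RealTime-Glo reagents is plated at 600 cells per well and left 5 h at 37 C/5% CO2. Compounds in DMSO then go in, and bioluminescence reflecting viable cell number is recorded over 40 h.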
# [12] = qHTS RealTime-Glo MT Cell Viability Assay in HepG2 cells - 40 hour (AID 1224870); note: nearly all actives have a fitted effect of over 50% in size; note: potency is the fitted concentration of half-maximal effect
# In short: (§6)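 HepG2 cells (600/well) mixed with RealTime-Glo MT reagent, settled 5 h at 37 C/5% CO2 before compound addition. Nonlytic NanoLuc luminescence from viable-cell prosubstrate reduction read repeatedly during 40 h treatment at 37 C.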
# [13] = qHTS RealTime-Glo MT Cell Viability Assay in HepG2 cells - 32 hour (AID 1224877); note: nearly all actives have a fitted effect of over 55% in size; note: potency is the fitted concentration of half-maximal effect
# In short: as §5
# [14] = A CellTox Green Cytotoxicity Assay to monitor cytotoxicity in HEK293 cells - 40 hour (AID 1224871); note: nearly all actives have a fitted effect of over 45% in size; note: potency is the fitted concentration of half-maximal effect
# In short: as §2
# [15] = qHTS RealTime-Glo MT Cell Viability Assay in HepG2 cells - 8 hour (AID 1224873); note: potency is the fitted concentration of half-maximal effect; nearly all actives have a fitted effect of over 55% in size
# In short: as §6
# [16] = qHTS assay to identify small molecule antagonists of the estrogen related receptor (ERR) signaling pathway from Tox21 library (AID 1224848)
# In short: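 Luminescent reporter read-out (ONE-Glo) from NTP's ERR cell line after 18 h treatment at 37 C with DMSO-dissolved Tox21 compounds; cells pre-plated 6 h beforehand at 2,000 per well.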
# [17] = qHTS RealTime-Glo MT Cell Viability Assay in HEK293 cells - 0 hour (AID 1224880)
# In short: as §3
# [18] = A CellTox Green Cytotoxicity Assay to monitor cytotoxicity in HEK293 cells - 32 hour (AID 1224881); note: potency is the fitted concentration of half-maximal effect; nearly all actives have a fitted effect of over 40% in size
# In short: as §2
# Tags give direction and shape of the fitted curve.
smiles,measurement,setting,value
CC(C)(C)c1cc(C(C)(C)C)c(O)c(C(C)(C)C)c1,Potency,[1],inconclusive: 127 µM [cytotoxic] and active: 101 µM
same,Potency,[2],"inconclusive: 49 µM [cytotoxic, partial curve, poor fit]"
same,Potency,[3],"inconclusive: 54.9 µM [activator, partial curve, poor fit]"
same,Potency,[4],"inconclusive: 34.7 µM [cytotoxic, partial curve] and inactive"
same,Potency,[5],"inconclusive: 43.6 µM [cytotoxic, partial curve, poor fit]"
same,Potency,[6],active: 54.9 µM and active: 38.9 µM
same,Potency,[7],"inconclusive: 54.9 µM [activator, single point]"
same,Potency,[8],"inconclusive: 54.9 µM [activator, single point] and active: 54.9 µM"
same,Potency,[9],"inconclusive: 61.7 µM [activator, single point]"
O=C(OCc1ccccc1)c1ccccc1,Potency,[1],"inconclusive: 56.6 µM [cytotoxic, partial curve, poor fit]"
same,"activity change, positive = activation",[10]; at 42.5 µM (top of the series),inconclusive: 17.8%
same,"activity change, positive = activation",[10]; at 92.4 µM (top of the series),inconclusive: 16.9%
same,Potency,[4],"inconclusive: 31 µM [cytotoxic, partial curve, poor fit]"
same,Potency,[6],"inconclusive: 27.6 µM [activator, partial curve, poor fit]"
O=c1cc(-c2ccccc2)oc2cc(O)cc(O)c12,Potency,[1],"inconclusive: 17.9 µM [rising, partial curve]"
same,Potency,[11],"inconclusive: 54.9 µM [falling, single point]"
same,Potency,[2],"inconclusive: 21.9 µM [cytotoxic, partial curve]"
same,Potency,[12],"inconclusive: 61.6 µM [falling, partial curve, poor fit]"
same,Potency,[4],"inconclusive: 43.6 µM [cytotoxic, partial curve]"
same,Potency,[5],"inconclusive: 15.5 µM [cytotoxic, partial curve]"
same,Potency,[13],"inconclusive: 54.9 µM [cytotoxic, single point]"
same,Potency,[8],"inconclusive: 54.9 µM [activator, single point]"
CCCCCCc1ccc(O)cc1O,Potency,[1],inconclusive: 55.2 µM [cytotoxic]
same,Potency,[11],"inconclusive: 49 µM [falling, partial curve, poor fit]"
same,Potency,[2],"inconclusive: 9.52 µM [cytotoxic, partial curve]"
same,Potency,[14],active: 49.1 µM and active: 49 µM and inactive
same,Potency,[4],"inconclusive: 9.52 µM [cytotoxic, partial curve]"
same,Potency,[15],"inconclusive: 49 µM [falling, single point]"
same,Potency,[5],"inconclusive: 9.52 µM [cytotoxic, partial curve]"
same,Potency,[7],active: 43.6 µM and active: 21.3 µM
O=S(=O)(Oc1ccc(Cl)cc1Cl)c1ccccc1,Potency,[1],active: 91.4 µM and active: 50.5 µM
same,Potency,[16],"inconclusive: 44 µM [inhibitor, partial curve]"
same,Potency,[2],"inconclusive: 14 µM [cytotoxic, partial curve]"
same,Potency,[4],"inconclusive: 25 µM [cytotoxic, partial curve, poor fit]"
same,Potency,[5],active: 14 µM
C/C=C(/C(=C/C)c1ccc(O)cc1)c1ccc(O)cc1,Potency,[1],"inconclusive: 55.2 µM [cytotoxic, single point]"
same,Potency,[2],"inconclusive: 16.9 µM [cytotoxic, partial curve]"
same,Potency,[14],"inconclusive: 23.9 µM [activator, partial curve]"
same,Potency,[5],active: 19 µM
same,Potency,[17],"inconclusive: 16.9 µM [falling, partial curve]"
Nc1ncnc2c1ncn2[C@@H]1O[C@H](COP(=O)(O)O)[C@@H](O)[C@H]1O,Potency,[1],inactive
same,Potency,[11],"inconclusive: 26.8 µM [falling, single point]"
same,Potency,[15],"inconclusive: 26.8 µM [falling, single point]"
[Cl][In]([Cl])[Cl],Potency,[1],"inconclusive: 127 µM [cytotoxic, single point]"
same,Potency,[16],"inconclusive: 56 µM [inhibitor, partial curve] and active: 34.4 µM"
same,Potency,[2],"inconclusive: 11.3 µM [rising, full curve] and inconclusive: 7.76 µM [rising, full curve]"
same,Potency,[14],"inconclusive: 54.9 µM [activator, single point]"
same,Potency,[4],"inconclusive: 27.5 µM [rising, partial curve]"
same,Potency,[5],"inconclusive: 11.3 µM [rising, full curve] and inconclusive: 12.3 µM [rising, full curve]"
same,Potency,[6],"inconclusive: 54.9 µM [activator, single point]"
same,Potency,[7],"inconclusive: 4.36 µM [activator, partial curve, poor fit]"
same,Potency,[8],"inconclusive: 6.92 µM [activator, partial curve, poor fit]"
same,Potency,[9],"inconclusive: 9.77 µM [activator, partial curve, poor fit]"
same,Potency,[18],"inconclusive: 54.9 µM [activator, single point]"
CC[C@H](C)COC(=O)/C=C/c1ccc(N=Cc2ccc(OC)cc2)cc1,Potency,[1],active: 89.7 µM
same,Potency,[2],active: 21.8 µM
same,Potency,[4],active: 21.8 µM
same,Potency,[5],active: 21.8 µM
same,Potency,[6],"inconclusive: 54.9 µM [activator, partial curve, poor fit]"
same,Potency,[17],"inconclusive: 54.9 µM [falling, partial curve, poor fit]"
same,Potency,[18],"inconclusive: 48.9 µM [activator, partial curve]"
NC(=Nc1ccccc1)Nc1ccccc1,Potency,[1],"inconclusive: 1.79 µM [cytotoxic, single point]"
same,Potency,[2],"inconclusive: 61.6 µM [cytotoxic, single point] and inconclusive: 535 nM [cytotoxic, single point]"
same,Potency,[4],"inconclusive: 61.6 µM [cytotoxic, single point]"
same,Potency,[5],"inconclusive: 61.6 µM [cytotoxic, single point] and inconclusive: 535 nM [cytotoxic, single point]"
same,Potency,[9],"inconclusive: 21.9 µM [activator, full curve, poor fit]"
same,Potency,[18],"inconclusive: 0.389 µM [activator, single point]"
Oc1ccc2ccccc2c1N=Nc1ccccc1,Potency,[1],"inconclusive: 56.6 µM [cytotoxic, partial curve] and inconclusive: 113 µM [cytotoxic, partial curve]"
same,Potency,[2],"inconclusive: 0.138 µM [rising, partial curve, poor fit]"
same,Potency,[14],"inconclusive: 61.6 µM [activator, single point]"
same,Potency,[4],"inconclusive: 54.9 µM [cytotoxic, single point]"
same,Potency,[15],"inconclusive: 49 µM [falling, partial curve, poor fit]"
same,Potency,[5],"inconclusive: 0.138 µM [rising, partial curve, poor fit]"
same,Potency,[6],"inconclusive: 61.6 µM [activator, single point]"
same,Potency,[18],"inconclusive: 61.6 µM [activator, single point]"
CCCCC(CC)C(=O)OCCOCCOCCOC(=O)C(CC)CCCC (stereo unspecified),Potency,[1],inactive
same,Potency,[2],"inconclusive: 24.8 µM [cytotoxic, partial curve] and inconclusive: 38.9 µM [cytotoxic, partial curve, poor fit]"
same,Potency,[4],"inconclusive: 19.7 µM [cytotoxic, full curve] and inconclusive: 38.9 µM [cytotoxic, partial curve]"
same,Potency,[5],"inconclusive: 38.9 µM [cytotoxic, partial curve]"
CC(C)N=C(N)/N=C(\N)Nc1ccc(Cl)cc1,Potency,[1],"inconclusive: 49.2 µM [cytotoxic, partial curve]"
same,Potency,[16],"inconclusive: 21.1 µM [inhibitor, partial curve]"
same,Potency,[4],"inconclusive: 21.3 µM [cytotoxic, partial curve]"
same,Potency,[5],active: 26.8 µM
same,Potency,[7],"inconclusive: 26.8 µM [activator, single point]"
same,Potency,[9],active: 26.8 µM
CC(=O)Oc1ccccc1C(=O)O,Potency,[1],"inconclusive: 17.9 µM [rising, full curve, poor fit]"
same,Potency,[12],inactive
O=C1OC(c2ccc(O)cc2)(c2ccc(O)cc2)c2ccccc21,Potency,[1],"inconclusive: 126 µM [cytotoxic, single point]"
same,Potency,[11],"inconclusive: 54.9 µM [falling, single point]"
same,Potency,[14],"inconclusive: 54.6 µM [activator, single point]"
same,Potency,[15],"inconclusive: 54.9 µM [falling, single point]"
same,Potency,[6],"inconclusive: 61.3 µM [activator, single point]"
same,Potency,[13],"inactive and inconclusive: 54.9 µM [cytotoxic, partial curve, poor fit]"
same,Potency,[9],"inconclusive: 54.9 µM [activator, single point]"
same,Potency,[17],"inconclusive: 54.9 µM [falling, single point]"
same,Potency,[18],"inconclusive: 54.6 µM [activator, single point]"
CCCCNc1c(C(=O)OCC)c(C)nc2c1cnn2CC,Potency,[1],"inconclusive: 55.2 µM [cytotoxic, single point]"
same,Potency,[2],active: 21.3 µM
same,Potency,[4],"inconclusive: 6.01 µM [cytotoxic, partial curve]"
same,Potency,[5],"inconclusive: 21.3 µM [cytotoxic, partial curve]"
same,Potency,[9],"inconclusive: 3.01 µM [activator, partial curve, poor fit]"
